Some of the results follow. Rule as the data show it: active = 3.2 or more and inactive = the rest. The signal is at background level for most entries.

What all share (assay): enrichment score (SH2-bound / input frequency) (ratio); bacterial display of known human phosphotyrosine sites (pTyr-Var adds point mutants) read by sequencing; higher = stronger binding; tyrosines were phosphorylated by kinases first
Common to all, as to settings: peptide library: pTyr-Var

In test [1] the target is SHP2 C-SH2 domain E139D.
Test [2] concerns the target SHP2 C-SH2 domain wild-type.
Test [3] deals with SHP2 N-SH2 domain L43F.
Test [4] concerns the target SHP2 N-SH2 domain T42A.
For test [5], the target named is SHP2 N-SH2 domain T52S.
Test [6] addresses SHP2 N-SH2 domain wild-type.
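Also: displayed peptides selected on beads carrying the immobilized SH2 domain, with library peptides lacking any tyrosine serving as negative controls.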

B1: FGFR4_Y237_YF (peptide)
chain: SIRFNYLLDVL
With B1, the enrichment score in test [1] is active: 3.43; in test [2], inactive: 3.11; in test [3], inactive: 3.17; in test [4], inactive: 2.56; in test [5], inactive: 3.02; in test [6], inactive: 3.15.

B2: FGG_Y300_R301H (peptide)
chain: PEADKYHLTYA
B2: the enrichment score is inactive: 0.623 in test [1]; inactive: 0.601 in test [2]; inactive: 0.639 in test [3]; inactive: 0.349 in test [4]; inactive: 0.543 in test [5]; inactive: 0.686 in test [6].

B3: FGFR3_Y648_D646N_YF (peptide)
chain: HNLNFYKKTTN
With B3, the enrichment score in test [1] is inactive: 0.434; in test [2], inactive: 0.6; in test [3] it was inactive: 0.58; in test [4] it was inactive: 0.315; in test [5] it was inactive: 0.383; in test [6], inactive: 0.434.

B4: FGFR2_Y657_YF (peptide)
chain: NNIDFYKKTTN
B4: the enrichment score was inactive: 0.551 in test [1]; inactive: 0.503 in test [2]; inactive: 0.381 in test [3]; inactive: 0.369 in test [4]; inactive: 0.484 in test [5]; inactive: 0.423 in test [6].

B5: FGFR3_Y647_K650E (peptide)
chain: VHNLDYYKETT
Take B5: the enrichment score in test [1] was inactive: 0.707; in test [2] it was inactive: 0.618; in test [3], inactive: 0.621; in test [4], inactive: 0.595; in test [5], inactive: 0.671; in test [6], inactive: 0.674.

B6: FGG_Y380 (peptide)
chain: YQGGTYSKAST
On to B6, for which the enrichment score was inactive: 0.569 in test [1]; inactive: 0.446 in test [2]; inactive: 0.514 in test [3]; inactive: 0.377 in test [4]; inactive: 0.592 in test [5]; inactive: 0.627 in test [6].

B7: FGFR2_Y657_K659N (peptide)
chain: NNIDYYKNTTN
As for B7, the enrichment score in test [1] was inactive: 0.945; in test [2] it was inactive: 0.58; in test [3] it was inactive: 0.805; in test [4], inactive: 0.619; in test [5], inactive: 0.764; in test [6], inactive: 0.829.

B8: FGFR3_Y647_YF (peptide)
chain: VHNLDYFKKTT
Consider B8, for which the enrichment score in test [1] was inactive: 0.66; in test [2], inactive: 0.721; in test [3], inactive: 0.655; in test [4], inactive: 0.687; in test [5] it was inactive: 0.639; in test [6], inactive: 0.623.

B9: FGFR4_Y390_G388R (peptide)
chain: LLARLYRGQAL
Regarding B9, the enrichment score in test [1] is inactive: 0.562; in test [2], inactive: 0.558; in test [3] it was inactive: 0.556; in test [4], inactive: 0.541; in test [5], inactive: 0.712; in test [6], inactive: 0.456.

B10: FGG_Y300 (peptide)
chain: PEADKYRLTYA
In the case of B10, the enrichment score was inactive: 0.706 in test [1]; inactive: 0.721 in test [2]; inactive: 0.675 in test [3]; inactive: 1.02 in test [4]; inactive: 0.678 in test [5]; inactive: 0.767 in test [6].

B11: FGFR3_Y648_K650Q_YF (peptide)
chain: HNLDFYKQTTN
As for B11, the enrichment score in test [1] was inactive: 0.747; in test [2], inactive: 0.674; in test [3], inactive: 0.577; in test [4] it was inactive: 0.766; in test [5], inactive: 0.768; in test [6], inactive: 0.856.

B12: FGFR3_Y648_K650M (peptide)
chain: HNLDYYKMTTN
For B12, the enrichment score was inactive: 0.838 in test [1]; inactive: 0.927 in test [2]; inactive: 0.951 in test [3]; inactive: 0.672 in test [4]; inactive: 0.848 in test [5]; inactive: 0.709 in test [6].

B13: FGFR3_Y648_K650Q (peptide)
chain: HNLDYYKQTTN
With B13, the enrichment score in test [1] is inactive: 1.04; in test [2], inactive: 0.842; in test [3] it was inactive: 0.644; in test [4], inactive: 0.618; in test [5] it was inactive: 0.697; in test [6] it was inactive: 0.741.

B14: FGG_Y300_YF (peptide)
chain: PEADKYRLTFA
B14: the enrichment score in test [1] was inactive: 1; in test [2], inactive: 0.803; in test [3] it was inactive: 0.781; in test [4], inactive: 0.606; in test [5], inactive: 0.759; in test [6] it was inactive: 0.816.

B15: FGFR3_Y647 (peptide)
chain: VHNLDYYKKTT
As to B15, the enrichment score in test [1] is inactive: 0.729; in test [2] it was inactive: 0.493; in test [3] it was inactive: 0.368; in test [4] it was inactive: 0.544; in test [5] it was inactive: 0.582; in test [6] it was inactive: 0.713.

B16: FGG_Y300_T303P_YF (peptide)
chain: PEADKYRLPFA
For the molecule B16, the enrichment score in test [1] is inactive: 0.86; in test [2], inactive: 0.583; in test [3] it was inactive: 0.456; in test [4], inactive: 0.901; in test [5], inactive: 0.566; in test [6] it was inactive: 0.835.

B17: FGG_Y140_Y140H (peptide)
chain: YLQEIHNSNNQ
In the case of B17, the enrichment score is inactive: 1.1 in test [1]; inactive: 0.993 in test [2]; inactive: 1.28 in test [3]; inactive: 0.981 in test [4]; inactive: 0.775 in test [5]; inactive: 0.866 in test [6].

B18: FGFR2_Y656_YF (peptide)
chain: INNIDYFKKTT
As to B18, the enrichment score in test [1] was inactive: 0.77; in test [2], inactive: 0.64; in test [3], inactive: 0.535; in test [4], inactive: 0.49; in test [5], inactive: 0.607; in test [6], inactive: 0.547.

B19: FGG_Y380_S384C_YF (peptide)
chain: FQGGTYSKACT
Consider B19, for which the enrichment score was inactive: 0.58 in test [1]; inactive: 0.723 in test [2]; inactive: 0.466 in test [3]; inactive: 0.499 in test [4]; inactive: 0.534 in test [5]; inactive: 0.538 in test [6].
